Results: patent US20210130346A1, “Bromodomain Inhibitors” (AbbVie Inc., priority 2017, published 2021)

target: BRD4 (BDII_E352-M457) (Homo sapiens, UniProt O60885); assay: TR-FRET bromodomain binding assay, BRD4 second bromodomain (BDII); conditions: mean Ki; 4 nM His tagged BRD4 (BDII_E352-M457), 30 nM Alexa647 probe; Ki calculated from IC50, probe Kd and probe concentration
Method: A time-resolved fluorescence resonance energy transfer (TR-FRET) assay was used to determine the affinities of compounds of the Examples listed in Table 1 for each bromodomain of BRD4. […] An Alexa647-labeled BET-inhibitor was used as the fluorescent probe in the assay.
Compound dilution series were prepared in DMSO via an approximately 3-fold serial dilution. Compound dilutions were added directly into white, low-volume assay plates (Perkin Elmer Proxiplate 384 Plus# 6008280) using a Labcyte Echo in conjunction with Labcyte Access and Thermo Multidrop CombinL robotics. Compounds were then suspended in eight microliters (μL) of assay buffer (20 mM Sodium Phosphate, pH 6.0, 50 mM NaCl, 1 mM Ethylenediaminetetraacetic acid disodium salt dihydrate, 0.01% Triton X-100, 1 mM DL-Dithiothreitol) containing His-tagged bromodomain, Europium-conjugated anti-His antibody (Invitrogen PV5596) and Alexa-647-conjugated probe.
After a one-hour equilibration at room temperature, TR-FRET ratios were determined using an Envision multilabel plate reader (Ex 340, Em 495/520).
TR-FRET data were normalized to the means of 24 no-compound controls (“high”) and 8 controls containing 1 μM un-labeled probe (“low”). Percent inhibition was plotted as a function of compound concentration and the data were fit with the 4 parameter logistic equation to obtain IC50s. Inhibition constants (Ki) were calculated from the IC50s, probe Kd and probe concentration.

| Structure (SMILES) | Ki [nM] |
| --- | --- |
| CCNC(=O)c1cc2c([C@@H]3C[C@@]34C(=O)N(C)c3ccccc34)cn(C)c(=O)c2[nH]1 (racemic) [Example 1, rac-N-ethyl-6-methyl-4-[(1R,2S)-1′-methyl-2′-oxo-1′,2′-dihydrospiro[cyclopropane-1,3′-indol]-2-yl]-7-oxo-6,7-dihydro-1H-pyrrolo[2,3-c]pyridine-2-carboxamide] | 9.2 |
| CN1C(=O)[C@@]2(C[C@H]2c2cn(C)c(=O)c3[nH]c(C(=O)NC4CC4)cc23)c2ccccc21 (racemic) [Example 2, rac-N-cyclopropyl-6-methyl-4-[(1R,2S)-1′-methyl-2′-oxo-1′,2′-dihydrospiro[cyclopropane-1,3′-indol]-2-yl]-7-oxo-6,7-dihydro-1H-pyrrolo[2,3-c]pyridine-2-carboxamide] | 4.77 |
| CN1C(=O)[C@@]2(C[C@H]2c2cn(C)c(=O)c3[nH]c(C(=O)NC4CC(F)(F)C4)cc23)c2ccccc21 (racemic) [Example 5, rac-N-(3,3-difluorocyclobutyl)-6-methyl-4-[(1R,2S)-1′-methyl-2′-oxo-1′,2′-dihydrospiro[cyclopropane-1,3′-indol]-2-yl]-7-oxo-6,7-dihydro-1H-pyrrolo[2,3-c]pyridine-2-carboxamide] | 22 |
| CN1C(=O)[C@@]2(C[C@H]2c2cn(C)c(=O)c3[nH]c(C(=O)Nc4ccccc4)cc23)c2ccccc21 (racemic) [Example 8, rac-6-methyl-4-[(1R,2S)-1′-methyl-2′-oxo-1′,2′-dihydrospiro[cyclopropane-1,3′-indol]-2-yl]-7-oxo-N-phenyl-6,7-dihydro-1H-pyrrolo[2,3-c]pyridine-2-carboxamide] | 5.43 |
| COc1ccc(NC(=O)c2cc3c([C@@H]4C[C@@]45C(=O)N(C)c4ccccc45)cn(C)c(=O)c3[nH]2)cc1 (racemic) [Example 9, rac-N-(4-methoxyphenyl)-6-methyl-4-[(1R,2S)-1′-methyl-2′-oxo-1′,2′-dihydrospiro[cyclopropane-1,3′-indol]-2-yl]-7-oxo-6,7-dihydro-1H-pyrrolo[2,3-c]pyridine-2-carboxamide] | 5.82 |
| CN1C(=O)[C@@]2(C[C@H]2c2cn(C)c(=O)c3[nH]c(C(=O)Nc4cccc(CO)c4)cc23)c2ccccc21 (racemic) [Example 10, rac-N-[3-(hydroxymethyl)phenyl]-6-methyl-4-[(1R,2S)-1′-methyl-2′-oxo-1′,2′-dihydrospiro[cyclopropane-1,3′-indol]-2-yl]-7-oxo-6,7-dihydro-1H-pyrrolo[2,3-c]pyridine-2-carboxamide] | 3.5 |
| CN1C(=O)[C@@]2(C[C@H]2c2cn(C)c(=O)c3[nH]c(C(=O)NC4CC4)cc23)c2ccc(F)cc21 (racemic) [Example 11, rac-N-cyclopropyl-4-[(1R,2S)-6′-fluoro-1′-methyl-2′-oxo-1′,2′-dihydrospiro[cyclopropane-1,3′-indol]-2-yl]-6-methyl-7-oxo-6,7-dihydro-1H-pyrrolo[2,3-c]pyridine-2-carboxamide] | 31.7 |
| CN1C(=O)[C@@]2(C[C@H]2c2cn(C)c(=O)c3[nH]c(C(=O)NC4CC4)cc23)c2ccc(Cl)cc21 (racemic) [Example 12, rac-4-[(1R,2S)-6′-chloro-1′-methyl-2′-oxo-1′,2′-dihydrospiro[cyclopropane-1,3′-indol]-2-yl]-N-cyclopropyl-6-methyl-7-oxo-6,7-dihydro-1H-pyrrolo[2,3-c]pyridine-2-carboxamide] | 3.65 |
| Cc1ccc2c(c1)N(C)C(=O)[C@@]21C[C@H]1c1cn(C)c(=O)c2[nH]c(C(=O)NC3CC3)cc12 (racemic) [Example 13, rac-N-cyclopropyl-4-[(1R,2S)-1′,6′-dimethyl-2′-oxo-1′,2′-dihydrospiro[cyclopropane-1,3′-indol]-2-yl]-6-methyl-7-oxo-6,7-dihydro-1H-pyrrolo[2,3-c]pyridine-2-carboxamide] | 5.59 |
| COc1ccc2c(c1)N(C)C(=O)[C@@]21C[C@H]1c1cn(C)c(=O)c2[nH]c(C(=O)NC3CC3)cc12 (racemic) [Example 14, rac-N-cyclopropyl-4-[(1R,2S)-6′-methoxy-1′-methyl-2′-oxo-1′,2′-dihydrospiro[cyclopropane-1,3′-indol]-2-yl]-6-methyl-7-oxo-6,7-dihydro-1H-pyrrolo[2,3-c]pyridine-2-carboxamide] | 10.2 |
| CN1C(=O)[C@@]2(C[C@H]2c2cn(C)c(=O)c3[nH]c(C(=O)NC4CC4)cc23)c2ccc(OC(F)(F)F)cc21 (racemic) [Example 15, rac-N-cyclopropyl-6-methyl-4-[(1R,2S)-1′-methyl-2′-oxo-6′-(trifluoromethoxy)-1′,2′-dihydrospiro[cyclopropane-1,3′-indol]-2-yl]-7-oxo-6,7-dihydro-1H-pyrrolo[2,3-c]pyridine-2-carboxamide] | 7.08 |
| CN1C(=O)[C@@]2(C[C@H]2c2cn(C)c(=O)c3[nH]c(C(=O)NC4CC4)cc23)c2cc(F)ccc21 (racemic) [Example 16, rac-N-cyclopropyl-4-[(1R,2S)-5′-fluoro-1′-methyl-2′-oxo-1′,2′-dihydrospiro[cyclopropane-1,3′-indol]-2-yl]-6-methyl-7-oxo-6,7-dihydro-1H-pyrrolo[2,3-c]pyridine-2-carboxamide] | 6.69 |

Second part, the compound after the results:

| Ki [nM] | Structure (SMILES) |
| --- | --- |
| 15.3 | Cn1cc([C@@H]2C[C@@]23C(=O)Nc2ccccc23)c2cc(C(=O)NC3CC3)[nH]c2c1=O (racemic) [Example 19, rac-N-cyclopropyl-6-methyl-7-oxo-4-[(1R,2S)-2′-oxo-1′,2′-dihydrospiro[cyclopropane-1,3′-indol]-2-yl]-6,7-dihydro-1H-pyrrolo[2,3-c]pyridine-2-carboxamide] |
| 3.53 | CCN1C(=O)[C@@]2(C[C@H]2c2cn(C)c(=O)c3[nH]c(C(=O)NC4CC4)cc23)c2ccccc21 (racemic) [Example 22, rac-N-cyclopropyl-4-[(1R,2S)-1′-ethyl-2′-oxo-1′,2′-dihydrospiro[cyclopropane-1,3′-indol]-2-yl]-6-methyl-7-oxo-6,7-dihydro-1H-pyrrolo[2,3-c]pyridine-2-carboxamide] |
| 8.65 | Cn1cc(C2CC23C(=O)N(CC(F)(F)F)c2ccccc23)c2cc(C(=O)NC3CC3)[nH]c2c1=O (racemic) [Example 23, rac-N-cyclopropyl-6-methyl-7-oxo-4-[(1R,2S)-2′-oxo-′-(2,2,2-trifluoroethyl)-1′,2′-dihydrospiro[cyclopropane-1,3′-indol]-2-yl]-6,7-dihydro-1H-pyrrolo[2,3-c]pyridine-2-carboxamide] |
| 5.81 | Cn1cc([C@@H]2C[C@@]23C(=O)N(C2CC2)c2ccccc23)c2cc(C(=O)NC3CC3)[nH]c2c1=O (racemic) [Example 26, rac-N-cyclopropyl-4-[(1R,2S)-1′-cyclopropyl-2′-oxo-1′,2′-dihydrospiro[cyclopropane-1,3′-indol]-2-yl]-6-methyl-7-oxo-6,7-dihydro-1H-pyrrolo[2,3-c]pyridine-2-carboxamide] |
| 261 | COCCN1C(=O)[C@@]2(C[C@H]2c2cn(C)c(=O)c3[nH]c(C(=O)NC4CC4)cc23)c2ccccc21 (racemic) [Example 27, rac-N-cyclopropyl-4-[(1R,2S)-1′-(2-methoxyethyl)-2′-oxo-1′,2′-dihydrospiro[cyclopropane-1,3′-indol]-2-yl]-6-methyl-7-oxo-6,7-dihydro-1H-pyrrolo[2,3-c]pyridine-2-carboxamide] |
| 15 | Cn1cc([C@@H]2C[C@@]23C(=O)N(Cc2ccc(N)cc2)c2ccccc23)c2cc(C(=O)NC3CC3)[nH]c2c1=O (racemic) [Example 28, rac-4-{(1R,2S)-1′-[(4-aminophenyl)methyl]-2′oxo-1′,2′-dihydrospiro[cyclopropane-1,3′-indol]-2-yl}-N-cyclopropyl-6-methyl-7-oxo-6,7-dihydro-1H-pyrrolo [2,3-c]pyridine-2-carboxamide] |
| 13.7 | CN1C(=O)[C@@]2(C[C@H]2c2cn(C)c(=O)c3[nH]c(C(=O)NC4CC4)cc23)c2cccc(Br)c21 (racemic) [Example 29, rac-4-[(1R,2S)-7′-bromo-1′-methyl-2′-oxo-1′,2′-dihydrospiro[cyclopropane-1,3′-indol]-2-yl]-N-cyclopropyl-6-methyl-7-oxo-6,7-dihydro-1H-pyrrolo[2,3-c]pyridine-2-carboxamide] |
| 174 | CN1C(=O)[C@@]2(C[C@H]2c2cn(C)c(=O)c3[nH]ccc23)c2ccccc21 (racemic) [Example 30, rac-(1R,2S)-1′-methyl-2-(6-methyl-7-oxo-6,7-dihydro-1H-pyrrolo[2,3-c]pyridin-4-yl)spiro[cyclopropane-1,3′-indol]-2′(1H)-one] |
| 40.8 | CN1C(=O)[C@@]2(C[C@H]2c2cn(C)c(=O)c3[nH]c(C4CC4)cc23)c2ccccc21 (racemic) [Example 31, rac-(1R,2S)-2-(2-cyclopropyl-6-methyl-7-oxo-6,7-dihydro-1H-pyrrolo[2,3-c]pyridin-4-yl)-1′-methylspiro[cyclopropane-1,3′-indol]-2′(1H)-one] |
| 91.2 | CN1C(=O)[C@@]2(C[C@H]2c2cn(C)c(=O)c3[nH]c(C4CN(C(=O)OC(C)(C)C)C4)cc23)c2ccccc21 (racemic) [Example 32, rac-tert-butyl 3-{6-methyl-4-[(1R,2S)-1′-methyl-2′oxo-1′,2′-dihydrospiro[cyclopropane-1,3′-indol]-2-yl]-7-oxo-6,7-dihydro-1H-pyrrolo [2,3-c]pyridin-2-yl}azetidine-1-carboxylate] |
